From publication PMC4599898
No constants are given. Whether binding was seen depends on the method and setting. In cells and extracts the contact can be indirect.

Experiments:
Assay in all cases: split reporter; split YFP BiFC in transiently transformed Arabidopsis protoplasts, 2 ug of each plasmid, incubated overnight; read by flow cytometry (at least three biological replicates, minimum 30,000 cells); each pair tested in both fusion conformations (SPN and SPC); positive where the normalized BiFC score lies above the threshold 0.01 in both conformations
[1] = molecular target: bZIP9 (Arabidopsis thaliana) (UniProt Q9FUD3)
[2] = molecular target: T1, GBF1 (Arabidopsis thaliana) (UniProt P42774)
T1 sequence: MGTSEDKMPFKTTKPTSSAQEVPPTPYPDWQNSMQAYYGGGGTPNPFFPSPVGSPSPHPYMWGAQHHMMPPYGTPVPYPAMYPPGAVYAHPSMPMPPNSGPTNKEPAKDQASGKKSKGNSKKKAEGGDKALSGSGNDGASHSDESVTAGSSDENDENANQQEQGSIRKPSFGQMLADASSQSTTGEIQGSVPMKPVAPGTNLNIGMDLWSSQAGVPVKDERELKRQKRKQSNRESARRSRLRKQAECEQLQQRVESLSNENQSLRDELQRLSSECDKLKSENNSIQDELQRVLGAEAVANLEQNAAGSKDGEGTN

[3] = molecular target: T2, HyH (Arabidopsis thaliana) (UniProt Q8W191)
T2 sequence: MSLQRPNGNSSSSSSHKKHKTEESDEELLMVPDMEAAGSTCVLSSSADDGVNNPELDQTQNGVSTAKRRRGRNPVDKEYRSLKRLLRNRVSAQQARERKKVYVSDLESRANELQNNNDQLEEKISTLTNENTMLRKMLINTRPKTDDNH

[4] = molecular target: T3, bZIP16 (Arabidopsis thaliana) (UniProt Q501B2)
T3 sequence: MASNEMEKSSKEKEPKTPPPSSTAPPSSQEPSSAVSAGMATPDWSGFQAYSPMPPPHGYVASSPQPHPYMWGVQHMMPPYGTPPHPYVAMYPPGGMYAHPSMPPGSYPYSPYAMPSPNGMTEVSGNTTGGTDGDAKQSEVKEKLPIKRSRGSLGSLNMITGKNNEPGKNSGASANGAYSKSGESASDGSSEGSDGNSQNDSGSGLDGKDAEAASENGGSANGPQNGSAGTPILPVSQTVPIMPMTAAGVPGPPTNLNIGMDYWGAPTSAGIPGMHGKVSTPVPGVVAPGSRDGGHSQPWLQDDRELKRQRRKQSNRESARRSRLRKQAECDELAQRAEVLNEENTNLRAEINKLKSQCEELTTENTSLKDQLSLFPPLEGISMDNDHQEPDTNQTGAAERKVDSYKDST

[5] = molecular target: T4, bZIP25 (Arabidopsis thaliana) (UniProt Q9M1G6)
T4 sequence: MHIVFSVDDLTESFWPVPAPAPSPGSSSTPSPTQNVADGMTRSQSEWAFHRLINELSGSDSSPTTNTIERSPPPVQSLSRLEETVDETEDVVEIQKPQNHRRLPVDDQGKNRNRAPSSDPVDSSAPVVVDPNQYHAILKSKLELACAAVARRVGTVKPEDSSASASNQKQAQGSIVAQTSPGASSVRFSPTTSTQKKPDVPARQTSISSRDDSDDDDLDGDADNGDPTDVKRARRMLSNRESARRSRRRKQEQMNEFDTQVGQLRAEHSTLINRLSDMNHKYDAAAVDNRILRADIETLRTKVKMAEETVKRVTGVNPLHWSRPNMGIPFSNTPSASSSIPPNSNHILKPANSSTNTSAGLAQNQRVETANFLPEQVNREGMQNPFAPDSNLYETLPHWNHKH

[6] = molecular target: T5, bZIP63 (Arabidopsis thaliana) (UniProt B9DGI8)
T5 sequence: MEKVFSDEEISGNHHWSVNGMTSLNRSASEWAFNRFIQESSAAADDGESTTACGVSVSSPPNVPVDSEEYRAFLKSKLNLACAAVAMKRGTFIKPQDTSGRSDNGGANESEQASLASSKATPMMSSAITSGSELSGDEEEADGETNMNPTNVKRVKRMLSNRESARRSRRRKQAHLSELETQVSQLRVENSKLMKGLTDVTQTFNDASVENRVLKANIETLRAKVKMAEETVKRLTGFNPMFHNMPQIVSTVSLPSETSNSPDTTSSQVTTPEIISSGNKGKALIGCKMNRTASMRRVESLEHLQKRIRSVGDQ

[7] = molecular target: T6, bZIP68 (Arabidopsis thaliana) (UniProt Q84LG2)
T6 sequence: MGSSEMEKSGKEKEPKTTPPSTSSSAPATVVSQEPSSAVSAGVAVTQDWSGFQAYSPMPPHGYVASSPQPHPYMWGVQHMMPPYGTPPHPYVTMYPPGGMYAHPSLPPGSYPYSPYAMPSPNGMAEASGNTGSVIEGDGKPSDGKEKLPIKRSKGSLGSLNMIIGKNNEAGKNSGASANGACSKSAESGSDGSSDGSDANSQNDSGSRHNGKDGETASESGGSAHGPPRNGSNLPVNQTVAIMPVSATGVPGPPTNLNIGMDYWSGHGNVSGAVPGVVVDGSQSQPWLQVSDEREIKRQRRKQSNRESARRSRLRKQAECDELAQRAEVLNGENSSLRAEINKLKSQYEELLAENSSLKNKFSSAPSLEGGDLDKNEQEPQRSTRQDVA

Measured: binding

B1: bZIP9 (protein, UniProt Q9FUD3 1-277)
chain: MDNHTAKDIGMKRSASELALQEYLTTSPLDPCFDLMNRDYTCELRDSLLWSEGLFPAGPFRDAQSSICENLSADSPVSANKPEVRGGVRRTTSGSSHVNSDDEDAETEAGQSEMTNDPNDLKRIRRMNSNRESAKRSRRRKQEYLVDLETQVDSLKGDNSTLYKQLIDATQQFRSAGTNNRVLKSDVETLRVKVKLAEDLVARGSLTSSLNQLLQTHLSPPSHSISSLHYTGNTSPAITVHSDQSLFPGMTLSGQNSSPGLGNVSSEAVSCVSDIWP
no binding: all assays above
